# Laboratory results from paper PMC6919601, “Identification of Plasmodium dipeptidyl aminopeptidase allosteric inhibitors by high throughput screening” (PLoS ONE, 2019).
# Among all 110,000 compounds or so, about 230 (0.21%) showed an effect of 50% or more. This is one part of the list.
# Target: DPAP1 (Plasmodium falciparum, UniProt Q8IIJ9)
# Experiment: primary screen, percent inhibition; read by cleavage of a fluorogenic dipeptide substrate; higher = more effect of the substance
# Design: species or system P. falciparum D10 trophozoite lysates; single well
# 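Further: 30 min substrate incubation versus DMSO and 10 µM JCP410 controls.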
# Chain of DPAP1 (Q8IIJ9 whole entry, looked up): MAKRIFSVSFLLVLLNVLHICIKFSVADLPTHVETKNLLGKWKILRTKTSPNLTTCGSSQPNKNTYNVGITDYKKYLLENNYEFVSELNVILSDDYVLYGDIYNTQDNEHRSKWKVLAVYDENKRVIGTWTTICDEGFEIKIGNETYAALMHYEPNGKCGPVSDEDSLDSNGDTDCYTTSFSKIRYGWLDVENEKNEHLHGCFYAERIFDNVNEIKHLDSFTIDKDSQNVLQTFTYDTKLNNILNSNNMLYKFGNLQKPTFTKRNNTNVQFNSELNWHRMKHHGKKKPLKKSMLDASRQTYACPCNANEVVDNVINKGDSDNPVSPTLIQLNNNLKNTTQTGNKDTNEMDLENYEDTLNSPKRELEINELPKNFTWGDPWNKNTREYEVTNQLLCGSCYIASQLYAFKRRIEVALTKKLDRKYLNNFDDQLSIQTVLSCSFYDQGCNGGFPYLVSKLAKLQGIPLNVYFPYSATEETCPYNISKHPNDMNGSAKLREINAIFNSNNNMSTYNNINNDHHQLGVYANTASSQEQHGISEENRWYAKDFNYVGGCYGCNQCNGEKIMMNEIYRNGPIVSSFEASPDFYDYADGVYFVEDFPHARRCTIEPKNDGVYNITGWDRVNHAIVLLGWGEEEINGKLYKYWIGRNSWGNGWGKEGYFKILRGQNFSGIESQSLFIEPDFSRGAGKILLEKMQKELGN
row,Structure (SMILES),% Inhibition @ 10 uM [%]
1,CC1(C)CC(=O)C2=C(C1)N(c1ccccc1)C(=O)CC2c1ccc2c(c1)OCO2 (stereo not shown),3.41
2,CC(NC(=O)c1csc2c1CCCC2)C1CCCO1 (stereo not shown),-0.312
3,NCCCC12CC3CC(CC(O)(C3)C1)C2,-2.18
4,CCOc1cc(C2C(C#N)=C(N)OC3=C2C(=O)CCC3)c(Br)cc1OCc1ccccc1 (stereo not shown),-2.24
5,CCOC(=O)N1CCC(NC(=O)C2=CCN(S(=O)(=O)c3ccc(F)cc3)CC2)CC1,1.8
6,N=C1/C(=C\c2cccn2-c2ccc(Br)cc2)C(=O)N=C2SC=NN12,0.208
7,CC(C)CC(Oc1ccc(-c2ccccc2)cc1)C(=O)NCC#N (stereo not shown),-1.41
8,Cc1ccc(CCNC(=O)CCS(=O)(=O)c2ccc(Br)cc2)cc1,-2.17
9,CC(=O)C(O)C[C@H]1[C@@](C)(O)CCC2C(C)(C)CCC[C@@]21C (stereo partly shown),1.13
10,CCN(CC)C(=O)c1ccc(Cl)c([N+](=O)[O-])c1,-2.56
11,Cc1ccc(-n2nc(C)c3c(C)cc(=O)oc32)cc1C,3.05
12,c1ccc(CCc2nn3c(-c4ccccc4)nnc3s2)cc1,4.96
13,CCOc1ccc(N(CC(=O)Nc2ccccc2-c2ccccc2)S(C)(=O)=O)cc1,16.4
14,O=C(O)c1ccc(NC(=O)c2cc(S(=O)(=O)N3CCCC3)ccc2Cl)cc1,-11
15,O=C1CC(c2ccccc2)CC(=O)C1=CNCc1ccccc1 (stereo not shown),-2.8
16,CCCS(=O)(=O)c1ncc(Cl)c(C(=O)N(Cc2ccccc2)c2ccccn2)n1,5.29
17,COc1cc2c(cc1OC)C(c1ccccc1C)NC(=O)C2 (stereo not shown),0.345
18,CC(=O)C1=C(C)NC(SCC(N)=O)=C(C#N)C1c1ccc(F)cc1 (stereo not shown),-0.239
19,CN(c1ccccc1)S(=O)(=O)c1ccc(F)cc1,2.41
20,CCCOc1ccc(C(=O)O/N=C(\N)c2ccc(C(F)(F)F)cc2)cc1,-0.812
21,COc1ccc2c(c1)CCc1c(C(=O)NCc3cccnc3)noc1-2,-10.7
22,COc1ccc(C2C(C(=O)Nc3ccccc3)=C(C)N=c3s/c(=C/c4cn(C)nc4C)c(=O)n32)cc1 (stereo not shown),5.87

row,Structure (SMILES),% Inhibition @ 10 uM [%]
1,O=C(NCc1cccs1)c1ccc(CSc2nc3ccncc3[nH]2)cc1,3.4
2,CC1Cc2cc(C(=O)C3=C(O)C(=O)N(Cc4cccnc4)C3c3cccs3)ccc2O1 (stereo not shown),-6.3
3,COc1ccc(/C=C(\C#N)C(=O)NCC2CCCO2)cc1 (stereo not shown),8.01
4,COc1ccc(C2c3c(oc4ccc(F)cc4c3=O)C(=O)N2c2nc(C)c(C(C)=O)s2)cc1OC (stereo not shown),2.1
5,Brc1ccccc1NCc1ccncc1,1.57
6,O=C(CCCn1c2ccccc2c2cnnc(O)c21)NCc1cccnc1,3
7,COc1ccc(NCc2ccccc2C(F)(F)F)cc1,-0.0908
8,CC(C)CC(C(=O)NCC#N)c1cccc(-c2ccc(S(=O)(=O)N(C)C3CCN(C)C3)cc2)c1 (stereo not shown),-1.41
9,Cc1ccc(C23CC4CC(CC(C(=O)Nc5ccccn5)(C4)C2)C3)cc1,4.41
10,Cc1ccc(NC(=O)c2ccc(C(C)(C)C)cc2)cc1,-1.69
11,COc1ccc(NC(=O)CN(c2ccccc2F)S(=O)(=O)c2ccccc2)c(OC)c1,-5.27
12,CCOC(=O)C1=CN(C)C=C(C(=O)OCC)C1c1ccc(C(C)C)cc1,-1.48
13,CCOc1ccc(/C=C/C(=O)c2ccc(Cl)cc2)cc1,2.62
14,COc1ccc(CC(=O)Nc2ccc(C(N)=O)cc2)cc1,3.68
15,CCS(=O)(=O)n1nc(-c2ccccc2)nc1N,2.46
16,CC1=C(C(=O)Nc2cccnc2)C(c2ccc(Cl)cc2)n2ncnc2N1 (stereo not shown),2.76
17,COC(=O)C1=C(C)OC(N)=C(C#N)C1c1cc(CN2CCOCC2)c(C)s1 (stereo not shown),-3.87
18,COc1ccc(C2=NOC(C(=O)N3CCN(C)CC3)C2)cc1 (stereo not shown),3.2
19,O=c1cc(N2CCOCC2)c2ccccc2s1,0.392
20,COc1ccccc1NC(=O)c1ccc(C)c(C)c1,2.64
21,O=C1N=C(N2CCCCC2)S/C1=C/c1ccc(Cl)cc1,3.69
22,CCN1C(=O)/C(=C/C=C/c2ccco2)C(=O)NC1=S,3.76

row,Structure (SMILES),% Inhibition @ 10 uM [%]
1,CO/C(O)=C1\C(C)=NC2=C(C(=O)CC(C)(C)C2)C1c1cccs1 (stereo not shown),0.345
2,CNC(=O)C(=O)Nc1cccc2ccccc12,1.57
3,c1ccc(CN2CCN(Cc3ccccc3)C2c2cccnc2)cc1,-8.18
4,CC(NC(=O)Cn1ncc2ccsc2c1=O)c1ccccc1 (stereo not shown),-6.52
5,CC(C)(O)C(=O)/C=C/c1cccc2ccccc12,4.16
6,CN1CCCN(Cc2ccc(C(F)(F)F)cc2)CC1,-1.92
7,COc1ccc(CC(=O)N2CC(=O)N(CCc3ccccc3)C(=O)C2)cc1OC,1.2
8,O=C(NC1CCCC1)C1CCN(C(=O)c2ccc(-c3ccccc3)cc2)CC1,-6.33
9,COc1ccc(C)cc1N(CC(=O)NCc1ccco1)S(=O)(=O)c1ccc(C)cc1,1.62
10,COc1ccc(/C=C(\NC(=O)c2ccccc2)C(=O)N2CCc3ccccc32)cc1OC,-2.18
11,COc1ccc(NC2(c3nnnn3-c3c(C)cccc3C)CCCC2)cc1,-1.45
12,Cc1ccsc1CN(C(=O)c1oc2c(C)c(C)ccc2c1C)C1CCS(=O)(=O)C1 (stereo not shown),0.569
13,CCC(C)NC(=O)CSc1nc2ccccc2c2nc(CCn3c(C)nc4ccccc43)nn12 (stereo not shown),5.74
14,CCN1CCN(C(=O)C2CCCN(S(=O)(=O)N(C)C3CCCCC3)C2)CC1 (stereo not shown),-1.97
15,COc1ccc(OC)c(C2C3=C(O)CCCC3=NC(C)=C2C(=O)Nc2cccc(F)c2)c1 (stereo not shown),-7.3
16,O=C(NCCN1CCCC1)c1ccc(-c2ccccc2)s1,-5.81
17,Cc1ccc2c(C)c(C(=O)N(Cc3ccccc3)C3CCS(=O)(=O)C3)oc2c1 (stereo not shown),2.1
18,N#Cc1cc(S(=O)(=O)N2CCOCC2)ccc1F,-2.14
19,CCN1CCC(N[C@H]2CC[C@H](O)CC2)CC1,-5.11
20,Cc1nc2sccn2c1C(=O)Nc1nc(-c2ccccc2)c(C)s1,-4.48
